Over roughly 110,000 compounds, “z-score” has its median near -0.1; the highest 2% begin near 2. This is one part of the list. Non-standard residues stand in square brackets, D forms with d. Residues, ends and D or L forms follow the SMILES beside them. ξ: configuration not given here. *: point of attachment. ξPhe(4-Me) = Cc1ccc(CC(N)C(=O)O)cc1; Bz = O=C(c1ccccc1)*

This experiment deals with Metabotropic glutamate receptor 8 (Rattus norvegicus) (UniProt P70579). Description: mGluR8 Gi/Go-coupled signaling modulation – cell-based, rat, thallium flux, HTS, primary screen (AID 488969). Conditions: HEK293 rat mGluR8, GIRK (G protein-gated inwardly rectifying potassium channel) thallium flux, FluoZin2; at 10 µM; stronger effect = higher value; submaximal glutamate (EC20) added with thallium.
Chain of UniProt P70579 (P70579 whole entry, looked up): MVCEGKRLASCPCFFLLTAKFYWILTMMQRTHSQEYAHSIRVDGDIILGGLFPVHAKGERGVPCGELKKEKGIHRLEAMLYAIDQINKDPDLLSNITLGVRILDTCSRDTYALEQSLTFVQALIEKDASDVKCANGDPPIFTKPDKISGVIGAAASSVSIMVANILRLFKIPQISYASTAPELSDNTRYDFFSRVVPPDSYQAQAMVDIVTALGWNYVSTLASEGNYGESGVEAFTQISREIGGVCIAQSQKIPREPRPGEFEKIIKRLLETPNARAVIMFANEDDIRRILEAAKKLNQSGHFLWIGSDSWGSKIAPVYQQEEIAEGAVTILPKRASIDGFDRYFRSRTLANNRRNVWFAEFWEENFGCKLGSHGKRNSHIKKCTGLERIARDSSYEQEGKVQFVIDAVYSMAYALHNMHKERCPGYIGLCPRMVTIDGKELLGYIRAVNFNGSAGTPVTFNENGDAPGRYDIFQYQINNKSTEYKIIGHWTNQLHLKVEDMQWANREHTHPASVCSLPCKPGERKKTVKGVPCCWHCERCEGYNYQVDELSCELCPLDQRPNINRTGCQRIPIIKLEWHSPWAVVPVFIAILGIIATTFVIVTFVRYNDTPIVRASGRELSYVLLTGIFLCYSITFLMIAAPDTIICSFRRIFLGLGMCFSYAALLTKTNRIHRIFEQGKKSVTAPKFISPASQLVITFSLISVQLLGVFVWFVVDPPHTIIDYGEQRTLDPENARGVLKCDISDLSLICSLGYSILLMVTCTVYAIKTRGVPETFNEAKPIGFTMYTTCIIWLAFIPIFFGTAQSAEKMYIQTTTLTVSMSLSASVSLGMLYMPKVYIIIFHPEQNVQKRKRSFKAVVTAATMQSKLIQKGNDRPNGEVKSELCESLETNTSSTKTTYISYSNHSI
Regarding `O=C(CN1C(=O)CCS(=O)(=O)c2ccccc21)Nc1cccc(F)c1`, the z-score was -0.608.
Then `CN(C)CCOC(=O)C12CC3CC(CC(C3)C1)C2`, with -0.651; and `Cc1cc(NC(=O)c2nn3cccnc3c2Cl)no1`, with 0.255.
In the case of `Cc1ccc(NC(=O)COC(=O)/C=C/c2cccs2)c(C)c1`, the z-score is -0.187.
Next, `COc1nc(NCCN2CCOCC2)nc(Nc2ccccc2)n1`: -0.161.
In the case of `CCCCCOC(=O)Cn1c(N2CCOCC2)nc2c1c(=O)[nH]c(=O)n2C`, the z-score is -0.228.
Then `COc1cc(/C=C2\SC(=S)N(Nc3ncc(C(F)(F)F)cc3Cl)C2=O)ccc1O`, with 1.29.
Turning to `O=C(NCC(=O)N(c1ccc2c(c1)OCO2)C(C(=O)NC1CCCC1)c1cccs1)c1ccco1` (stereo not given), the z-score is -0.15.
Next, `CCn1cc(Br)c(C(=O)NCc2ccco2)n1`: -0.035; `Cc1[nH]c2ccc(OCc3ccccc3)cc2c1CCN1C(=O)OC(C)(C)C1(C)O` (stereo not given): 0.395; `COc1ccc(-c2cc(C(F)(F)F)nc(NCc3ccco3)n2)cc1OC`: -0.224.
`O=C(Nc1ccc(S(=O)(=O)NCc2ccco2)cc1)c1ccc2ccccc2n1` came in with a z-score of 0.441.
Then `Cc1nn(CCCC(=O)NCc2ccccc2)c(C)c1[N+](=O)[O-]`, with -0.229.
Next, `CN(C(=O)c1cccc(Nc2ccc(-c3ccc4c(c3)OCCO4)nn2)c1)C1CCCCC1`: -0.0525; `O=C1CCCN1CN(C(=O)c1ccc2c(c1)OCO2)c1cccc(Cl)c1`: -0.21.
Take `CCOC(=O)c1[nH]c(CSc2nnc(-c3ccncc3)n2CCOC)c(C(=O)OCC)c1C`: the z-score was determined as 0.162.
In turn, `COC(=O)c1[nH]c2cc(OC)ccc2c1NC(=O)CCN1CCN(c2ccccc2)CC1` displayed a z-score of 0.0276.
Next, `COc1cc(C)c(S(=O)(=O)NC2CC(C)(C)NC(C)(C)C2)cc1C`: 1.09.
Turning to `CC(C)(C)C1CCc2c(sc3c2C(=O)NC(c2ccco2)N3)C1` (stereo not given), the z-score is -0.267.
Then `COc1ccc(CN2CCCCC2C)cc1C` (stereo not given), with 0.24; and `COc1ccc(-c2csc(NC(=O)CC(C)C)n2)cc1`, with -0.146; and `N#Cc1ccc(Cl)cc1NC(=O)COC(=O)c1ccc(S(=O)(=O)N2CCCC2)cc1`, with -0.554.
Then `CCC(Sc1nc2ccc(C)cc2[nH]1)C(=O)O` (stereo not given), with 0.179; and `COCCOC(=O)C1=C(C)NC(SCC(=O)NC(C)(C)C)=C(C#N)C1c1ccco1` (stereo not given), with -0.204.
Next, `O=C1C2C3C=CC([C@@H]2C(=O)N1Cc1cccnc1)C31CC1` (stereo not given in full): 0.204; `CCOC(=O)c1c(NC(=O)c2cccnc2)sc(C(C)=O)c1C`: -0.374.
`CCn1c(SCC(=O)NC2CCCCC2)nnc1-c1cccs1` returned a z-score of 0.0017.
Then `COC(=O)c1ccc(C2NC(C(=O)O)CS2)cc1` (stereo not given), with 0.0669; and `Cc1ccc(CC(NC(=O)c2ccccc2)C(=O)NCC(=O)O)cc1` (stereo not given) (Bz-[ξPhe(4-Me)]-Gly-OH), with -0.182.
In turn, `CCOC(=O)C1=C(c2ccccc2)OC(N)=C(C#N)C1c1ccc(Cl)s1` (stereo not given) came in with a z-score of 0.397.
Next, `Cn1cc(S(=O)(=O)NCc2cccs2)c(=O)n(C)c1=O`: -0.114; `Cc1ccc(-n2nnnc2SC(C(=O)c2c[nH]c3ccccc23)c2ccccc2)cc1` (stereo not given): -0.184; `CCCC(NC(=O)CCl)c1ccccc1` (stereo not given): -0.196.
Then `O=C(O)c1c2c(nc3ccccc13)CCCCC2`, with -0.169; and `CCOC(=O)CN(C(=O)CNC(=O)c1cccs1)C(C(=O)NC1CCCCC1)c1cccnc1` (stereo not given), with -0.161; and `CC1Cn2c(nnc2-c2cccs2)S1` (stereo not given), with 0.809.
In the case of `COc1ccc(/C=N/NC(=O)C2(O)c3ccccc3-c3ccccc32)cc1`, the z-score was -0.188.
For `COC(=O)c1cc(OC)ccc1-c1ccc(OC)cc1`, the z-score is -0.081.
Turning to `CCCCN(CCNP(=O)(OCC)OCC)CP(=O)(OCC)OCC`, the z-score was -0.386.
With `CCn1c(CCC(=O)Nc2nc3c(s2)CCCC3)nc2cc(S(=O)(=O)N(C)C)ccc21`, the z-score is -1.73.
For `Cc1cc(NC(=O)CSc2nnc(-c3ccc(Cl)s3)o2)no1`, the z-score is -0.14.
Then `COc1ccc(C(=S)N2CCNCC2)cc1`, with -0.24; and `COc1ccc(CCC(=O)N2CCN(C3CCCCC3)CC2)cc1`, with 0.0604; and `CCCCOc1ccc(C(C)NC(=O)CCS(=O)(=O)Cc2ccccc2Cl)cc1` (stereo not given), with 0.131.
Then `COc1cc(CNc2ccccc2Oc2cc(=O)n(C)c(=O)n2C)cc(OC)c1OC`, with -0.0525.
Next, `CC(=O)Oc1ccc(/C=N/NC(=O)C2CCCN2S(=O)(=O)c2ccc(Cl)cc2)cc1` (stereo not given): -0.183; `CCCNc1nc(-c2ccccc2)c(C(=O)OCC)cc1C#N`: -0.322; `CS(=O)(=O)Nc1ccccc1C(=O)Nc1ccc2c(c1)OCCO2`: 1.36.
The compound `CCOc1ccc(-c2cn[nH]c2N)cc1` had a z-score of 0.0827.
Then `O=C(Nc1cccc(-c2nnc(-c3ccccc3)o2)c1)C1CCCO1` (stereo not given), with 3; and `CCN(CC)c1ccc(-c2nc3cnccn3c2NC2CCCC2)cc1`, with -0.206.
Next, `COc1ccc(CNc2nc(NCc3ccc(OC)cc3)n(C(C)=O)n2)cc1`: 0.112.
For `Cc1occc1C(=O)N/N=C/c1ccc(Cl)c([N+](=O)[O-])c1`, the z-score was -0.263.
On to `CN(C)C(CNC(=O)CCCc1c[nH]c2ccccc12)c1ccco1` (stereo not given), for which the z-score is -0.0945.
The compound `CCC(C)(C)n1nnnc1C(c1ccc(O)c(OC)c1)N1CCc2ccccc2C1` (stereo not given) gave a z-score of 0.179.
Next, `Cc1ccc(S(=O)(=O)N/N=C/c2cccc([N+](=O)[O-])c2)cc1`: -1.79; `CCCC(=O)Nc1nnc(CC(=O)OCC)s1`: 0.155; `Cc1ccc2c(c1)CC1(CN2C)C(=O)OC2(CCCCC2)OC1=O`: -0.298.
Next, `CCOc1ccc(OCC)c(NC(=O)CC2Oc3ccc(C)cc3NC2=O)c1` (stereo not given): 0.616; `O=C1OCc2cc(NS(=O)(=O)c3cccs3)ccc21`: -0.0208.
Next, `CCc1cc2c(SCC(=O)c3ccccc3)ncnc2s1`: 0.275.
As for `C=CCOC(=O)/C(=C\c1cccc2ccccc12)NC(=O)c1ccccc1`, the z-score was -0.859.
Consider `COCCCNC(=O)C(=O)NCCCOC(C)C`, for which the z-score is -0.0971.
The compound `COn1c(SCc2cccc(Cl)c2)nc2ccccc2c1=O` showed a z-score of 1.06.
`O=C(Oc1ccc(Br)cc1)C1CC(=O)N(c2ccc(F)cc2)C1` (stereo not given): the z-score is -2.14.
With `CCN(CC)S(=O)(=O)c1ccc2c(c1)nc(SCC(=O)N1CCCCCC1)n2-c1ccc(OC)cc1`, the z-score is -0.307.
Compound `Cc1ccc(S(=O)(=O)N2CCCN(c3nc4cc(C)ccc4cc3C#N)CC2)cc1` had a z-score of 0.114.
Then `O=C(COc1ccccc1)N1CCN=C1c1ccccc1`, with -0.0473; and `CCOc1ccc(/C(O)=C2/C(=O)C(=O)N(CCCn3ccnc3)C2c2cccs2)cc1Cl` (stereo not given), with 0.304.
Next, `Cc1ccccc1C1C2=C(Nc3[nH]n(-c4ccccc4)c(=O)c31)c1ccccc1C2=O` (stereo not given): 0.625.
On to `COc1ccc(Cc2nc(-c3ccccn3)no2)cc1`, for which the z-score is 0.268.
With `COC(=O)c1ccc(N/C(=N/S(=O)(=O)c2ccccc2)c2ccccc2)cc1`, the z-score was -0.286.
Turning to `CCOc1ccccc1N1CCN(CC(=O)Nc2nnc(CC)s2)CC1`, the z-score is -0.692.
The compound `CCOc1ccc2c(=O)c(-c3ccc4c(c3)OCCCO4)c(C)oc2c1` came in with a z-score of 0.521.
`O=S(=O)(c1cccc(F)c1)N1CCN(Cc2ccc3c(c2)OCO3)CC1` gave a z-score of 0.162.
Next, `COCCN(C(=S)Nc1cc(C)ccc1C)C(C)c1cccnc1` (stereo not given): -0.226.
Then `O=C(CSc1nccn1-c1ccc(Cl)cc1)N1CCCc2ccccc21`, with -0.0979.
`CCOC(=O)c1sc2nc(CC(C)C)c3c(c2c1N)CCC3` displayed a z-score of 0.235.
Then `CCOC(=O)N1CCN(c2c(NCCN3CCCCC3CC)c(=O)c2=O)CC1` (stereo not given), with 0.153; and `CC(C)N(C#N)c1nc(N2CCOCC2)nc(N2CCOCC2)n1`, with -1.06; and `CCOC(=O)C1CCCN(C(=O)CCCn2nc(C)n3c(cc4sccc43)c2=O)C1` (stereo not given), with -0.373.
`COc1ccc(OC)c(N2Cc3ccccc3C2)c1`: the z-score was -0.948.
Next, `CCC(C)NC(=O)CSc1nc2ccccc2c(=O)n1CCCC(=O)NCC1CCCO1` (stereo not given): 0.139; `O=C(CCC1CCCCC1)Nc1ccc(S(=O)(=O)Nc2nccs2)cc1`: 0.362.
Next, `CC(=O)Nc1cccc2c1C(=O)NC2=O`: 0.274; `O=C(CN1CCN(c2ccccc2F)CC1)c1c[nH]c2ccccc12`: 0.0394.
As for `CCNc1nc(N)nc(Oc2ccc(OCC)nn2)n1`, the z-score is -0.561.
`O=C(NCC(c1cccnc1)N1CCN(c2ccccc2)CC1)c1ccc2c(c1)OCO2` (stereo not given) gave a z-score of 0.0727.
Next, `CCOc1ccc(N2C(=O)CC(NC3CCCCNC3=O)C2=O)cc1` (stereo not given): -0.232.
Then `Cc1ccc(CN2CCN(CC(=O)NC(C)c3ccc4c(c3)OCCO4)C2=O)cc1` (stereo not given), with 0.0215.
Next, `CCCOC(=O)c1c(N)sc2c1CCC2`: -0.748; `CCCCCN(C(=O)NC(=O)Nc1ccc(C)cc1)S(=O)(=O)c1ccccc1`: -0.107; `CCS(=O)(=O)N1CCCC(C(=O)NCCc2ccc(OC)c(OC)c2)C1` (stereo not given): 0.485.
`COCCCn1c(=N)c(C(=O)NC2CCCCC2)cc2c(=O)n3ccccc3nc21`: the z-score is -0.225.
Then `Cc1ccc(-c2nc3cc(N)ccc3o2)cc1`, with -0.0633.
With `CCCCCn1c(CN2CCN(c3cc(Cl)ccc3C)CC2)nc2c1c(=O)[nH]c(=O)n2C`, the z-score amounted to 0.74.
`O=C(c1ccco1)N1CCN(c2nc(C3CC3)nc3c2nnn3Cc2ccccc2Cl)CC1`: the z-score was 0.00404.
Take `CC(=O)Nc1ccc(NCN2C(=O)C3C4CCC(C4)C3C2=O)cc1` (stereo not given): the z-score came to 0.0136.
Next, `CCOc1ccc(-c2nc(C#N)c(NCc3ccc4c(c3)OCO4)o2)cc1`: 0.406; `Cc1nc2cc(-c3sccc3-n3cccc3)nn2c(C)c1C`: 0.334; `COc1ccc2nc(SCC(=O)O)nc(C)c2c1`: -0.216.
In the case of `COC(=O)c1sc(S(=O)(=O)N2CCCCC2C(=O)O)c(C(=O)OC)c1C` (stereo not given), the z-score is -0.184.
Next, `O=C(NCc1cccnc1)c1ccc(CS(=O)(=O)c2ccc(Cl)cc2)o1`: 0.0226.
Next, `Cc1nc2scc(-c3cccs3)c2c(=O)[nH]1`: 0.0765; `CN(C)CCN1C(=O)C(O)=C(C(=O)c2cc3ccccc3o2)C1c1ccc(N(C)C)cc1` (stereo not given): -0.145.
Consider `COc1cc(=O)n(C)c2cc(N(C)C)ccc12`, for which the z-score is -0.569.
For `CCN1CCN(CC(=O)Nc2ccccc2)C(=O)C1=O`, the z-score was -0.229.
Then `CCc1ccc(NC(=O)CSc2n[nH]c(C)c2[N+](=O)[O-])cc1`, with -0.0704; and `COC(=O)c1ccccc1NC(=O)CN1CCC(n2nnc3cc(C(F)(F)F)ccc32)CC1`, with -0.434.
Take `COc1ccc(N2CCN(C(=O)CSc3nc4c(c(=O)n(C)c(=O)n4C)n3C(C)C)CC2)cc1`: the z-score came out at 0.00806.

Values taken from PubChem BioAssay AID488969 (Vanderbilt High Throughput Screening Facility, 2010).
